The subject of test [1] is HSkMC (human skeletal muscle cells). Kind of test: cytotoxicity call (relative viability < 0.9). The note with it: 10 µM.
Test [2] concerns HepG2. Kind of test: cytotoxicity call (relative viability < 0.9). The note with it: 10 µM.
The subject of test [3] is S. aureus RN4220. Kind of test: growth inhibition call (relative growth <= 0.2). The note with it: 50 µM.

The other results are listed elsewhere or left out.

For the compound `C[C@@H]1CCCCO[C@H](CN(C)Cc2ccc(C(=O)O)cc2)[C@@H](C)CN([C@H](C)CO)C(=O)c2cc(NC(=O)Nc3ccccc3)ccc2O1`, the cytotoxicity call in test [1] and in test [2] was “inactive” in each case. Also, the growth inhibition call in test [3] was “inactive”.

As for `CC(C)N(C)C(=O)c1cccc(NC(=O)c2ccncc2)c1OCCCN(C)Cc1ccc(Cl)cc1`, the cytotoxicity call in test [1] and in test [2] was “inactive” throughout. In test [3], the growth inhibition call is “inactive”.

`NC(=O)N1CCC(=O)Nc2ccccc21`: the cytotoxicity call in test [1] and in test [2] was “inactive” in each case. For the same compound, the growth inhibition call in test [3] was “inactive”.

For `C[C@H]1CCCCO[C@@H](CN(C)C(=O)Nc2ccc(C(F)(F)F)cc2)[C@@H](C)CN([C@@H](C)CO)C(=O)c2cc(NC(=O)C3CCCCC3)ccc2O1`, the cytotoxicity call in test [1] and in test [2] was “inactive” throughout. In test [3], the growth inhibition call is “inactive”.

As for `C[C@@H]1CN([C@@H](C)CO)C(=O)c2cc(-c3ccncc3)cnc2O[C@H]1CN(C)S(=O)(=O)c1ccccc1`, the cytotoxicity call in test [1] and in test [2] was “inactive” throughout. For the same compound, the growth inhibition call in test [3] is “inactive”.

Turning to `CC(=O)Nc1c(I)cc(I)c(C(=O)O)c1I`, the cytotoxicity call in test [1] and in test [2] was “inactive” each time. For the same compound, in test [3], the growth inhibition call was “inactive”.

As for `O=c1oc2cc3occ(-c4ccccc4)c3cc2c2ccccc12`, the cytotoxicity call in test [1] and in test [2] was “inactive” each time. The growth inhibition call in test [3] is “inactive”.

In the case of `C[C@@H]1CCCCO[C@H](CN(C)S(=O)(=O)c2cccs2)[C@@H](C)CN([C@@H](C)CO)C(=O)c2cc(NC(=O)C3CCCCC3)ccc2O1`, the cytotoxicity call in test [1] and in test [2] was “inactive” throughout. Moreover, the growth inhibition call in test [3] was “inactive”.

Turning to `COc1ccc(CN(C)C[C@H]2OCCCC[C@H](C)Oc3ccc(NC(=O)Nc4ccccc4)cc3C(=O)N([C@@H](C)CO)C[C@@H]2C)cc1`, the cytotoxicity call in test [1] and in test [2] was “inactive” each time. In addition, the growth inhibition call in test [3] is “inactive”.

`C[C@@H]1CN([C@H](C)CO)C(=O)c2cc(NC(=O)Nc3cccc4ccccc34)ccc2O[C@H]1CN(C)C(=O)Nc1ccccc1`: the cytotoxicity call in test [1] and in test [2] was “inactive” each time. The growth inhibition call in test [3] was “inactive”.

As to `C[C@@H]1CCCCO[C@@H](CN(C)C(=O)Nc2ccc(C(F)(F)F)cc2)[C@H](C)CN([C@@H](C)CO)C(=O)c2cc(NC(=O)Cc3ccccc3)ccc2O1`, the cytotoxicity call in test [1] and in test [2] was “inactive” throughout. In test [3], the growth inhibition call is “inactive”.

As to `C[C@@H]1CCCCO[C@H](CN(C)Cc2ccc(C(F)(F)F)cc2)[C@H](C)CN([C@H](C)CO)C(=O)c2cc(N(C)C)ccc2O1`, in test [1], the cytotoxicity call was “inactive”. Also, the cytotoxicity call in test [2] is “active”. For the same compound, the growth inhibition call in test [3] was “inactive”.
